The whole screen tested about 310,000 compounds, of which about 14,000 (4.5%) showed an effect of 50% or more. Effects have a minus sign here. Some of the results follow.
The molecules below were run against human ether-à-go-go-related gene (hERG) potassium channel (human, UniProt Q12809) (assay: primary screen, population patch clamp on CHO cells stably expressing hERG).
Sequence of human ether-à-go-go-related gene (hERG) potassium channel (Q12809 whole entry, looked up): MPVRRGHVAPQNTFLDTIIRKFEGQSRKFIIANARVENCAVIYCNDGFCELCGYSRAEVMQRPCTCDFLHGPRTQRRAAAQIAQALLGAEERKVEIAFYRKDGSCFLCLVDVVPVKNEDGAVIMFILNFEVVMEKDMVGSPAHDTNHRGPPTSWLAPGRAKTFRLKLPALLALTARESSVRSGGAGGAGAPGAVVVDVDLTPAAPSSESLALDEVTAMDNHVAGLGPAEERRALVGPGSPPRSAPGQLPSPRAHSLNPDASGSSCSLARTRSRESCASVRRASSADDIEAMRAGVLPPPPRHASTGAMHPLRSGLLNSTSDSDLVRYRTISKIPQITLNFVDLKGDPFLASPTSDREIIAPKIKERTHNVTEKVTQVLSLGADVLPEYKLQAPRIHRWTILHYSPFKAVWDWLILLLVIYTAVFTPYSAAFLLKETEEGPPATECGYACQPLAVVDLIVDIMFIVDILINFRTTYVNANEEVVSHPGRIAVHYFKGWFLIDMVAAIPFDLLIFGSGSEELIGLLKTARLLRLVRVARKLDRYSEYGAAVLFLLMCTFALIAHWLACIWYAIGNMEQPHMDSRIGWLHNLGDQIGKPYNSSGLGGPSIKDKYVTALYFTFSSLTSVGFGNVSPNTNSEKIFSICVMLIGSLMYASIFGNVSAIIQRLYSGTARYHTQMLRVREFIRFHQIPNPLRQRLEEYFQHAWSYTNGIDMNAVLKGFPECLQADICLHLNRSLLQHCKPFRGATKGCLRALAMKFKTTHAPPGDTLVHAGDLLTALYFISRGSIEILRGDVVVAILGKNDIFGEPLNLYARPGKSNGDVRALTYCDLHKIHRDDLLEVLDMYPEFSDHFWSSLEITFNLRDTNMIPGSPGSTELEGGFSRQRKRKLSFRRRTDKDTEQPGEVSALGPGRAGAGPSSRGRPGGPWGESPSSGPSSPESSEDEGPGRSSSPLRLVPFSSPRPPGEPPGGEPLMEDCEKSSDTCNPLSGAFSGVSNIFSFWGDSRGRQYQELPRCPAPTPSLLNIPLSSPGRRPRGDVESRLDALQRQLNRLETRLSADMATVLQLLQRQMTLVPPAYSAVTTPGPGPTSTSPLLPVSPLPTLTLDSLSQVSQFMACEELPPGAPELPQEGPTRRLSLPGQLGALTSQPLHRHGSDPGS
With Cc1ccc(-n2c(=O)[nH]cc(C(=O)Nc3ccc4c(c3)OCCO4)c2=O)cc1C the “hERG current change (%, negative = inhibition) at 10uM” value was -5.33%. With O=C(NCc1cccc(Cl)c1)N1CCN(S(=O)(=O)c2ccccc2F)CC1 the “hERG current change (%, negative = inhibition) at 10uM” value was -25.5%. With Cc1ccc2c(n1)CC(C)(C)CC2=O the “hERG current change (%, negative = inhibition) at 10uM” value was 14.3%. In the case of Cc1cccc(Cn2c(SCCN3CCCCC3)nc3c2c(=O)[nH]c(=O)n3C)c1, the “hERG current change (%, negative = inhibition) at 10uM” value is reported as -79.1%. For COc1ccc(OC)c(C2(O)CSC(=Nc3cccnc3)N2Cc2ccco2)c1 (stereo not shown), the “hERG current change (%, negative = inhibition) at 10uM” value was -16.3%. For CN(CC(=O)Nc1ccc(Cl)cc1)C(=O)c1ccc(COc2ccccc2)cc1, the “hERG current change (%, negative = inhibition) at 10uM” value was 3.79%. In the case of C=CCOC(=O)C1=C[C@H](c2cn(C(C)=O)c3ccccc23)[C@@H](CCCO)[C@H](OCC)O1, the “hERG current change (%, negative = inhibition) at 10uM” value is reported as -42.2%. For CC(Sc1nc2cc(Cl)ccc2s1)C(=O)Nc1ccc2c(c1)OCO2 (stereo not shown), the “hERG current change (%, negative = inhibition) at 10uM” value was 6.08%. In the case of CCOc1ccccc1C1CC(c2cccc(NS(C)(=O)=O)c2)=NN1C(=O)c1ccccc1 (stereo not shown), the “hERG current change (%, negative = inhibition) at 10uM” value is reported as -38.1%. In the case of CCOc1ccc(OCCOCCNCCOC)cc1, the “hERG current change (%, negative = inhibition) at 10uM” value is reported as -0.544%. O=C(OCc1ccc(Br)cc1)c1cccnc1 was tested, and the “hERG current change (%, negative = inhibition) at 10uM” value was -5.96%. In the case of CCSc1nnc([C@@H](N)Cc2ccccc2)o1.Cl, the “hERG current change (%, negative = inhibition) at 10uM” value is reported as -10.4%. With O=[N+]([O-])/C=C/c1cn(Cc2ccc(Cl)cc2)c2ccccc12 the “hERG current change (%, negative = inhibition) at 10uM” value was 2.65%. CC(Oc1coc(CN2CCN(C(=O)c3ccco3)CC2)cc1=O)c1ccccc1 (stereo not shown) was tested, and the “hERG current change (%, negative = inhibition) at 10uM” value was 11.5%. With Cc1noc(C)c1C(=O)Nc1ccc(S(=O)(=O)N2CCCCC2)cc1 the “hERG current change (%, negative = inhibition) at 10uM” value was 20.9%. With O=C(NNC(=O)c1ccccc1[N+](=O)[O-])Nc1ccccc1C(F)(F)F the “hERG current change (%, negative = inhibition) at 10uM” value was 15.9%. In the case of Cc1ccc(S(=O)(=O)N2CCC(C(=O)Nc3cc(C(F)(F)F)ccc3N3CCOCC3)CC2)cc1C, the “hERG current change (%, negative = inhibition) at 10uM” value is reported as -7.08%. COC(=O)C(/C=N/OCc1ccc([N+](=O)[O-])cc1)NC(=O)c1cccc(Cl)c1 (stereo not shown) was tested, and the “hERG current change (%, negative = inhibition) at 10uM” value was -29.1%. With O=C(CN1CCN(C(=O)c2ccco2)CC1)Nc1cc(Cl)ccc1Cl the “hERG current change (%, negative = inhibition) at 10uM” value was -60.1%. For CC(=O)Nc1ccc2nc(-c3ccco3)[nH]c2c1, the “hERG current change (%, negative = inhibition) at 10uM” value was 7.99%. In the case of CC(=O)c1ccc(NC(=O)C2CCN(S(=O)(=O)c3ccc4c(c3)N(C(C)=O)CCO4)CC2)cc1, the “hERG current change (%, negative = inhibition) at 10uM” value is reported as -0.485%. O=C1c2ccccc2-c2onc3c(N4CCN(CCO)CC4)cc(N4CCN(C(=O)c5ccco5)CC4)c1c23 was tested, and the “hERG current change (%, negative = inhibition) at 10uM” value was -22.1%. CCOC(=O)[C@H]1[C@H]2COc3ccc(Br)cc3[C@@H]2N2C(=O)CN(CC3CCCO3)C(=O)[C@@]12C (stereo partly shown) was tested, and the “hERG current change (%, negative = inhibition) at 10uM” value was -10.8%. COc1cc(OC)cc(C(=O)OCC(=O)NC(c2ccccc2)c2ccccc2)c1 was tested, and the “hERG current change (%, negative = inhibition) at 10uM” value was 6.21%. With O=C(c1cc2cc([N+](=O)[O-])ccc2oc1=O)N1CCOCC1 the “hERG current change (%, negative = inhibition) at 10uM” value was -0.062%. In the case of Cc1ccc(N(CC(=O)N/N=C/c2cccs2)S(C)(=O)=O)cc1, the “hERG current change (%, negative = inhibition) at 10uM” value is reported as -3.64%. For CCOc1ccc(NC2CCN(C(C)=O)CC2)cc1, the “hERG current change (%, negative = inhibition) at 10uM” value was 9.81%. For COc1ccc(NC(=O)CSc2nnc(-c3cccnc3)n2C)cc1, the “hERG current change (%, negative = inhibition) at 10uM” value was 8.3%. With Cc1cccc(C)c1NC(=O)c1c(O)c2ccccc2[nH]c1=O the “hERG current change (%, negative = inhibition) at 10uM” value was 12.1%. With CCOC(=O)c1ccccc1N1C(=O)C2Sc3[nH]c(=O)sc3C(/C=C/c3ccccc3)C2C1=O (stereo not shown) the “hERG current change (%, negative = inhibition) at 10uM” value was 5.45%. In the case of CCOc1ccc(Cc2onc3c2C(=O)CC(C)(C)C3)cc1OCC, the “hERG current change (%, negative = inhibition) at 10uM” value is reported as -14.6%. In the case of Cc1cc(C)c(NC(=O)C2CCCN2CCO)c(C)c1 (stereo not shown), the “hERG current change (%, negative = inhibition) at 10uM” value is reported as -14.5%. In the case of O=C(c1ccc(Cl)cc1)c1cc(-c2ccccn2)c(N2CCOCC2)s1, the “hERG current change (%, negative = inhibition) at 10uM” value is reported as -54.9%. O=C(Nc1ccccn1)c1ccc2c(c1)OCCO2 was tested, and the “hERG current change (%, negative = inhibition) at 10uM” value was 11.5%. For CC(C(=O)NCCc1ccc(S(N)(=O)=O)cc1)N1C(=O)CC(C)(C)Sc2ccccc21 (stereo not shown), the “hERG current change (%, negative = inhibition) at 10uM” value was 0.73%. For COc1ccc(CNC(=O)CN(c2cccc([N+](=O)[O-])c2)S(C)(=O)=O)cc1, the “hERG current change (%, negative = inhibition) at 10uM” value was -10.5%. With CN(C)C(CNC(=O)c1cccc(S(=O)(=O)Nc2ccc(Br)cc2)c1)c1ccco1 (stereo not shown) the “hERG current change (%, negative = inhibition) at 10uM” value was -24.2%. CC(C)CC(NC(=O)c1ccc(Cl)cc1Cl)C(=O)O (stereo not shown) was tested, and the “hERG current change (%, negative = inhibition) at 10uM” value was 8.01%. In the case of Cc1cc(C(=O)COC(=O)C2=NNC(=O)CC2)c(C)n1-c1cccc(C(F)(F)F)c1, the “hERG current change (%, negative = inhibition) at 10uM” value is reported as -9.25%. In the case of Cc1c(Cl)cccc1NC(=S)N1CCC(N(C)CC2CCCO2)CC1 (stereo not shown), the “hERG current change (%, negative = inhibition) at 10uM” value is reported as -2.97%. Cc1cccc(N2CCN(C(=O)c3ccoc3C)CC2)c1C was tested, and the “hERG current change (%, negative = inhibition) at 10uM” value was -16.2%. For Cc1ccc(S(=O)(=O)N2CCOCC2)cc1C(=O)OCCOc1cccc(Cl)c1, the “hERG current change (%, negative = inhibition) at 10uM” value was -9.45%. For COc1ccc(CNC(=O)CN2C(=O)c3ccc([N+](=O)[O-])cc3C2=O)cc1, the “hERG current change (%, negative = inhibition) at 10uM” value was -1.07%.

From paper PMC4336329 (PLoS ONE, 2015)
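Further: peak tail current of the secondary pulse compared with the same well before compound.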
